# Results: the supplement of paper PMC8728848
# The list shows a part of the results.
# B1: Clec49 (Caenorhabditis elegans) (protein)
# chain: MTRLTLLLFGLLGAATAQTCNTGGIYNEQFNRCYQYFTAPAQFSFAEQQCNLLGGHLASVQNGQENALLQSNAANSFKRSNYSDYWIGATDLETSGTWKWTDPSVTFDYSNWQLGEPQSGSDCAIQDKGDGTWSAIGCTSYRPYVCVTPVIMTATCPPITTPIPTTCPTPAPCPIKQCVPSCDQGWTYFSPTDFCYRVYHGEKFNDAEASCVLLGGHLASIHSLTENTFVNNIASCGIKEGKYEHLAWIGMRKVGQDWVWTDGTPSDYFNWAPKQPDNPKKELCVQTAPDLSHDKWYENWNNLECNEVMRAYICKKASIHN
# Experiments:
# Assay in all cases: glycan array binding signal (z-score within array); higher = stronger binding
# Details in all cases: glycan notation: IUPAC condensed, linker removed
# [1] = target: Gal(a1-3)Gal(b1-4)GlcNAc(b1-2)Man
# In short: (§1)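 Glycan array data came from 3228 arrays in the Consortium for Functional Glycomics database, and only arrays with an available protein sequence were kept. Glycan names were put into IUPAC-condensed notation, and columns mapping to the same glycan were averaged. The binding signal is a within-array Z-score, averaged across arrays of one protein sequence run at different concentrations or buffers and across linkers. A negative Z-score can be read as non-binding.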
# [2] = target: Gal(a1-3)Gal(b1-4)GlcNAc(b1-2)Man(a1-3)[Gal(a1-3)Gal(b1-4)GlcNAc(b1-2)Man(a1-6)]Man(b1-4)GlcNAc(b1-4)GlcNAc
# In short: as §1
# [3] = target: Gal(a1-3)Gal(b1-4)GlcNAc(b1-3)GalNAc
# In short: as §1
# [4] = target: Gal(a1-3)Gal(b1-4)GlcNAc(b1-6)GalNAc
# In short: as §1
# [5] = target: Gal(a1-3)Gal(b1-4)[Fuc(a1-3)]GlcNAc
# In short: as §1
# [6] = target: Gal(a1-3)Gal(b1-4)[Fuc(a1-3)]GlcNAc(b1-2)Man(a1-3)[Gal(a1-3)Gal(b1-4)[Fuc(a1-3)]GlcNAc(b1-2)Man(a1-6)]Man(b1-4)GlcNAc(b1-4)GlcNAc
# In short: as §1
# [7] = target: Gal(a1-3)GalNAc
# In short: as §1
# [8] = target: Gal(a1-3)[Gal(a1-4)]Gal(b1-4)GlcNAc
# In short: as §1
# [9] = target: Gal(a1-4)Gal(b1-3)GlcNAc(b1-2)Man(a1-3)[Gal(a1-4)Gal(b1-3)GlcNAc(b1-2)Man(a1-6)]Man(b1-4)GlcNAc(b1-4)GlcNAc
# In short: as §1
# [10] = target: Gal(a1-4)Gal(b1-4)Glc
# In short: as §1
# [11] = target: Gal(a1-4)Gal(b1-4)GlcNAc
# In short: as §1
# [12] = target: Gal(a1-4)Gal(b1-4)GlcNAc(b1-2)Man(a1-3)[Gal(a1-4)Gal(b1-4)GlcNAc(b1-2)Man(a1-6)]Man(b1-4)GlcNAc(b1-4)GlcNAc
# In short: as §1
# [13] = target: Gal(a1-4)Gal(b1-4)GlcNAc(b1-3)Gal(b1-4)Glc
# In short: as §1
# [14] = target: Gal(a1-4)GlcNAc
# In short: as §1
# [15] = target: Gal(a1-6)Glc
# In short: as §1
# [16] = target: Gal(b1-2)Gal
# In short: as §1
# [17] = target: Gal(b1-3)Gal
# In short: as §1
# [18] = target: Gal(b1-3)Gal(b1-4)GlcNAc
# In short: as §1
# [19] = target: Gal(b1-3)GalNAc
# In short: as §1
# [20] = target: Gal(b1-3)GalNAc(a1-3)[Fuc(a1-2)]Gal(b1-4)Glc
# In short: as §1
# [21] = target: Gal(b1-3)GalNAc(a1-3)[Fuc(a1-2)]Gal(b1-4)GlcNAc
# In short: as §1
# [22] = target: Gal(b1-3)GalNAc(b1-3)Gal
# In short: as §1
# [23] = target: Gal(b1-3)GalNAc(b1-3)Gal(a1-4)Gal(b1-4)Glc
# In short: as §1
# [24] = target: Gal(b1-3)GalNAc(b1-4)Gal(b1-4)Glc
# In short: as §1
# [25] = target: Gal(b1-3)GalNAc(b1-4)[Neu5Ac(a2-3)]Gal(b1-4)Glc
# In short: as §1
# [26] = target: Gal(b1-3)GlcNAc
# In short: as §1
# [27] = target: Gal(b1-3)GlcNAc(a1-3)Gal(b1-4)GlcNAc
# In short: as §1
# [28] = target: Gal(b1-3)GlcNAc(a1-6)Gal(b1-4)GlcNAc
# In short: as §1
# [29] = target: Gal(b1-3)GlcNAc(b1-2)Man
# In short: as §1
# [30] = target: Gal(b1-3)GlcNAc(b1-2)Man(a1-3)[Gal(b1-3)GlcNAc(b1-2)Man(a1-6)]Man(b1-4)GlcNAc(b1-4)GlcNAc
# In short: as §1
# [31] = target: Gal(b1-3)GlcNAc(b1-2)Man(a1-3)[Gal(b1-3)GlcNAc(b1-2)Man(a1-6)]Man(b1-4)GlcNAc(b1-4)[Fuc(a1-6)]GlcNAc
# In short: as §1
# [32] = target: Gal(b1-3)GlcNAc(b1-2)Man(a1-3)[GlcNAc(b1-4)][Gal(b1-3)GlcNAc(b1-2)Man(a1-6)]Man(b1-4)GlcNAc(b1-4)GlcNAc
# In short: as §1
# [33] = target: Gal(b1-3)GlcNAc(b1-2)[Gal(b1-3)GlcNAc(b1-6)]Man(a1-6)[Gal(b1-3)GlcNAc(b1-2)Man(a1-3)]Man(b1-4)GlcNAc(b1-4)GlcNAc
# In short: as §1
# [34] = target: Gal(b1-3)GlcNAc(b1-3)Gal(b1-3)GlcNAc
# In short: as §1
# [35] = target: Gal(b1-3)GlcNAc(b1-3)Gal(b1-4)Glc
# In short: as §1
# [36] = target: Gal(b1-3)GlcNAc(b1-3)Gal(b1-4)GlcNAc
# In short: as §1
# [37] = target: Gal(b1-3)GlcNAc(b1-3)Gal(b1-4)GlcNAc(b1-2)Man(a1-3)[Gal(b1-3)GlcNAc(b1-3)Gal(b1-4)GlcNAc(b1-2)Man(a1-6)]Man(b1-4)GlcNAc(b1-4)GlcNAc
# In short: as §1
binder,measurement,setting,value
B1,glycan array binding signal (z-score),[1],0.895
same,glycan array binding signal (z-score),[2],0.541
same,glycan array binding signal (z-score),[3],-0.407
same,glycan array binding signal (z-score),[4],-0.422
same,glycan array binding signal (z-score),[5],0.246
same,glycan array binding signal (z-score),[6],2.45
same,glycan array binding signal (z-score),[7],-0.457
same,glycan array binding signal (z-score),[8],-0.331
same,glycan array binding signal (z-score),[9],-0.77
same,glycan array binding signal (z-score),[10],-0.394
same,glycan array binding signal (z-score),[11],-0.033
same,glycan array binding signal (z-score),[12],0.749
same,glycan array binding signal (z-score),[13],-0.229
same,glycan array binding signal (z-score),[14],0.052
same,glycan array binding signal (z-score),[15],-0.221
same,glycan array binding signal (z-score),[16],0.354
same,glycan array binding signal (z-score),[17],0.777
same,glycan array binding signal (z-score),[18],0.247
same,glycan array binding signal (z-score),[19],0.198
same,glycan array binding signal (z-score),[20],-0.369
same,glycan array binding signal (z-score),[21],-0.934
same,glycan array binding signal (z-score),[22],0.42
same,glycan array binding signal (z-score),[23],0.34
same,glycan array binding signal (z-score),[24],-0.089
same,glycan array binding signal (z-score),[25],-0.776
same,glycan array binding signal (z-score),[26],-0.244
same,glycan array binding signal (z-score),[27],-0.676
same,glycan array binding signal (z-score),[28],-0.5
same,glycan array binding signal (z-score),[29],1.72
same,glycan array binding signal (z-score),[30],1.15
same,glycan array binding signal (z-score),[31],0.219
same,glycan array binding signal (z-score),[32],3.15
same,glycan array binding signal (z-score),[33],0.209
same,glycan array binding signal (z-score),[34],-0.234
same,glycan array binding signal (z-score),[35],-0.561
same,glycan array binding signal (z-score),[36],-0.381
same,glycan array binding signal (z-score),[37],-0.992
